Reference: PubChem BioAssay AID651820 (National Center for Advancing Translational Sciences (NCATS), 2012)
Screen size: about 340,000 compounds; about 12,000 (3.5%) were called active. Inconclusive means that the source gave no clear call. Such entries were picked first, then a sample of the others. The call rests on the fitted dose curve; in most records, active means well fitted inhibition curve with a large enough effect; inconclusive means small, poorly fitted or top-dose-only effect, or another doubt; inactive means no such curve, though single readings can be large or run the other way. Potencies of inconclusive entries are left out as doubtful fits.

Test: qHTS Assay for Inhibitors of Hepatitis C Virus (HCV)
Details: Huh7.5.1 HCVcc-Cre (HCVcc is cell-culture hepatitis C virus) infection, luciferase reporter, 44 h; activity change, negative = inhibition: at 41.8 µM (top of the series)
How it was run: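 Cells (1,000/well) were plated 4 h before compound, then infected with HCVcc-Cre virus (~0.5 moi). After 44 h further culture, infection was read as luciferase luminescence following a 15 min substrate incubation at room temperature.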
On the % scale 0 is the no-effect control and ±100 the full control effect; potency means the concentration at half of the fitted maximal effect; tags describe the fitted curve by direction and shape.

| SMILES | Potency | activity change, negative = inhibition |
| --- | --- | --- |
| Cc1ccc2c(c1)NC(=O)[C@@]1(C)[C@@H](c3ccccc3)[C@H]3COc4ccc(Cl)cc4[C@@H]3N1C2=O | inconclusive [inhibitor, single point] |  |
| CC1(C)SC(=S)N(/N=C/c2ccccc2O)C1N(O)C(=O)Nc1ccccc1 (stereo not given) | active: 11.2 µM |  |
| COc1ccc(-c2cc(C(=O)Nc3nc4c(C)cccc4s3)c3ccccc3n2)cc1OC | inconclusive [inhibitor, full curve] |  |
| Cc1cc(C)c(NC(=O)CSc2nnc(-c3ccncc3)n2Cc2ccco2)c(Cl)c1 | inconclusive [inhibitor, single point] |  |
| Cc1cc(NC(=O)CCC(=O)N(CC(=O)NC2CCCC2)Cc2ccccc2Cl)no1 |  | inactive: -2.83% |
| Cc1ccc(OCCCC(=O)NNC(=O)c2ccccn2)cc1 | inconclusive [inhibitor, partial curve] |  |
| Cc1ccc(C(=O)O/N=C(\N)c2cccnc2)cc1[N+](=O)[O-] |  | inactive: 17.1% |
| CCN(CC)S(=O)(=O)c1cccc(C(=O)Nc2sc3c(c2C(N)=O)CCCC3)c1 | inconclusive [inhibitor, full curve] |  |
| Cc1cc(C(=O)N(C)Cc2c(F)cccc2Cl)c2ccccc2n1 | inconclusive [inhibitor, single point] |  |
| CN(c1ccccc1)S(=O)(=O)c1ccc(Cl)c(C(=O)Nc2ccc(N3CCOCC3)cc2)c1 | active: 15.8 µM |  |
| COCCNC(=O)c1c(CSc2ccc(Cl)cc2)noc1C(=O)NCc1ccccc1 | inconclusive [inhibitor, single point] |  |
| CN(C)c1ccc(C(=O)C(O)c2ccc(C(C)(C)C)cc2)cc1 (stereo not given) | inconclusive [inhibitor, full curve] |  |
| C/C(=N/Nc1ncc(Br)cn1)c1ccc(Br)cc1 | inconclusive [inhibitor, single point] |  |
| CCN1CCN(CCNC(=O)C2CCCN(Cc3nc(-c4cccc(Cl)c4)oc3C)C2)CC1 (stereo not given) | active: 10 µM |  |
| O=C1CN(C(=O)c2ccc(Br)o2)C(c2ccccc2)c2cc(Cl)ccc2N1 (stereo not given) | inconclusive [inhibitor, single point] |  |
| O=C(COC(=O)c1ccccc1C(=O)OCC(=O)NCCc1c[nH]c2ccccc12)NCCc1c[nH]c2ccccc12 | inconclusive [inhibitor, full curve] |  |
| COc1cc(CN(C)C(C)C(=O)Nc2ccc([N+](=O)[O-])cc2Cl)ccc1OC(F)F (stereo not given) | inconclusive [inhibitor, partial curve] |  |
| CCc1ccc(-c2cc(C)no2)cc1S(=O)(=O)N1CCN(c2ccc(F)cc2)CC1 | active: 5.01 µM |  |
| CC(=O)c1ccc(OCC(O)CN2CCN(CCN3C(=O)c4cccc5cccc(c45)C3=O)CC2)cc1 (stereo not given) | inconclusive [inhibitor, partial curve] |  |
| NC(=S)Nc1ncc(C(F)(F)F)cc1Cl |  | inactive: -13.9% |
| CCc1nc(CN2CCN(c3cc(C(F)(F)F)ccn3)CC2)c(C)[nH]1 | inconclusive [inhibitor, single point] |  |
| CC(C)NC(=O)c1cnn2c1NC(c1cccs1)CC2C(F)(F)F (stereo not given) | active: 2.82 µM |  |

| SMILES | Potency | activity change, negative = inhibition |
| --- | --- | --- |
| CC(=Nc1ccccc1)c1sc2ccccc2c1O | inconclusive [inhibitor, single point] |  |
| CCCc1cc(C(=O)OC)c2ccccc2n1 |  | inactive: 6.43% |
| COc1cccc(CN(C)c2nc(-c3cccs3)nc3ccccc23)c1 | inconclusive [inhibitor, partial curve] |  |
| Fc1ccccc1COc1ccccc1CNCc1ccncc1 | inconclusive [inhibitor, single point] |  |
| O=C(C1CCN(c2nnc(N3CCCC3=O)s2)CC1)N1CCN(c2cccc(C(F)(F)F)c2)CC1 | inconclusive [inhibitor, single point] |  |
| CCOC(=O)/C(=N/Nc1ccc(Cl)cc1)S(=O)(=O)c1ccccc1 | inconclusive [inhibitor, partial curve] |  |
| COc1cc([C@@H]2CC=C(C(=O)O)[C@H](c3ccc(C)cc3)N2S(=O)(=O)c2ccc(C)cc2)cc(OC)c1OC |  | inactive: 15.3% |
| CCOc1ccccc1-c1nc(CN2CCCC2c2nccs2)c(C)o1 (stereo not given) | inconclusive [inhibitor, partial curve] |  |
| O=C(CSc1nc(SCC(=O)NCc2ccccc2)n(-c2ccccc2)n1)NCc1ccccc1 | inconclusive [inhibitor, partial curve, poor fit] |  |
| CC[C@H](C)[C@@H](NC(=O)O[C@@H]1C(=O)c2cc(OC)ccc2O[C@H]1c1ccc(OC)c(Br)c1)C(=O)OC | inconclusive [inhibitor, partial curve] |  |
| CSc1nc(N)nc(SCC(=O)c2ccc(C)cc2)c1C#N | inconclusive [inhibitor, single point] |  |
| O=C(CN1C(=O)c2ccccc2S1(=O)=O)Nc1cc(S(=O)(=O)N2CCCCC2)ccc1Cl |  | inactive: -10.3% |
| O=C(Nc1ccccn1)c1ccc([N+](=O)[O-])o1 | inconclusive [inhibitor, single point] |  |
| COc1ccc(NC(=O)/C=C/c2c(Cl)nc3ccccn23)cc1 | inconclusive [inhibitor, partial curve, poor fit] |  |
| O=C(/C=C/c1cn(CC(O)CN2CCCCCC2)c2ccccc12)c1cccs1 (stereo not given) | inconclusive [inhibitor, single point] |  |
| N=c1n(CCN2CCCCC2)c2ccccc2n1CC(O)COc1ccccc1 (stereo not given) | active: 11.2 µM |  |
| Cc1cc(C)cc(N(C(=O)c2nsc(Cl)c2Cl)C(C(=O)NC2CCCC2)c2ccc(O)cc2)c1 (stereo not given) | inconclusive [inhibitor, single point] |  |
| Cc1ccc(NC(=O)c2ccccc2-c2ccc(C(F)(F)F)cc2)cc1S(=O)(=O)N1CCOCC1 | inconclusive [inhibitor, single point] |  |
| CC(=O)c1cccc(NC2c3ccccc3C(=O)N2Cc2ccc3c(c2)OCO3)c1 (stereo not given) | inconclusive [inhibitor, partial curve] |  |
| O=C1N/C(=N\N=C\c2cccs2)SC1Cc1cccc(Cl)c1 (stereo not given) | inconclusive [inhibitor, single point] |  |
| Cc1ccc2c(c1)-n1c(nc3ccc(C)cc3c1=O)C(Cc1ccc(O)cc1)NC2=O (stereo not given) | inconclusive [inhibitor, partial curve] |  |
| Cc1nn(C(=O)c2nn(C)cc2[N+](=O)[O-])c(C)c1Br |  | inactive: 19.3% |

| SMILES | Potency | activity change, negative = inhibition |
| --- | --- | --- |
| COC(=O)CCN1CCC(c2cc(-c3cccc(C(F)(F)F)c3)n[nH]2)CC1 |  | inactive: 11.6% |
| COc1ccc(NC(=O)Cn2nnc(C(=O)NCc3ccc4c(c3)OCO4)c2N)c(OC)c1 |  | inactive: -19.4% |
| CCCCC1=CC2=CC(=O)C(C)(OC(=O)CC)C(=O)C2=CN1c1cccc(C#N)c1 (stereo not given) | inconclusive [inhibitor, single point] |  |
| CCCN(c1ccccc1F)S(=O)(=O)c1cc(-c2cc(C)no2)ccc1OC | inconclusive [inhibitor, single point] |  |
| Cc1nonc1C(=O)N/N=C/c1ccc(O)c(O)c1 | inconclusive [inhibitor, partial curve] |  |
| COc1cc2ccc3c(CCN(C)C)cc(OC)c(OC)c3c2cc1OC | inconclusive [inhibitor, single point] |  |
| CCN(CC)C(=O)[C@H]1CC(CC(=O)NC/C=C(\C)CCC=C(C)C)C(=O)N2CCc3c([nH]c4ccccc34)[C@]12C (stereo not given in full) | inconclusive [inhibitor, partial curve, poor fit] |  |
| O=C(CSCc1ccccc1Cl)N1CCN(c2ccccn2)CC1 |  | inactive: -19.8% |
| COc1ccc(-c2csc(NNC3=NCCCCC3)n2)cc1 | inconclusive [inhibitor, single point] |  |
| CCC1(c2ccccc2)NC(=O)N(CC(=O)Nc2cc(S(=O)(=O)N3CCOCC3)ccc2OC(C)C)C1=O (stereo not given) | inconclusive [inhibitor, single point] |  |
| CC(=O)C[C@H](O)CC(=O)[C@H]1OC(=O)[C@H](C)C/C=C\Cc2ccccc21 |  | inactive: -12.2% |
| O=C(Nc1ccc(-c2csnn2)cc1)C(Cl)(Cl)Cl | inconclusive [inhibitor, single point] |  |
| Cc1cccc(CCNC(=O)C2CCCN(c3ncnc4c3nc3n4CCCCC3)C2)c1 (stereo not given) | inconclusive [inhibitor, single point] |  |
| CCN(C(=O)c1ccccc1F)c1nc(-c2ccc(OC)cc2)cs1 | inconclusive [inhibitor, single point] |  |
| O=c1cc(-c2ccco2)oc2ccccc12 | inconclusive [inhibitor, single point] |  |
| COc1cc(NC2=Nc3cccc4cccc2c34)cc(OC)c1OC | inconclusive [inhibitor, single point] |  |
| CSc1ncccc1C(=O)OCC(=O)NC1CC1 | inconclusive [inhibitor, full curve, poor fit] |  |
| NC(=O)CCC(=O)N1CCCC(C(=O)c2ccc(C(F)(F)F)cc2)C1 (stereo not given) |  | inactive: -3.67% |
| CC1=C(C(=O)N2CCCC(C(=O)c3cccc4ccccc34)C2)OCCO1 (stereo not given) | inconclusive [inhibitor, single point] |  |
| COc1ccc(CN(CCc2c[nH]c3ccccc23)Cc2ccc(OC)cc2)cc1 | inconclusive [inhibitor, partial curve] |  |
| CCOc1cc(S(=O)(=O)N2CCCC2)ccc1Cl | inconclusive [inhibitor, partial curve] |  |
